Laboratory results reported in the GPR68 mutational scans of Howard et al. (2025).
Scores whose standard error is large were omitted. Two further conditions of the source, in which the scores hardly spread, are not listed. Names with del lack the residues named; names with ins carry added residues between the positions named. For some of these results: The data file names ogerin without a concentration.

B1: GPR68, Q15743 (parent)
chain: MGNITADNSSMSCTIDHTIHQTLAPVVYVTVLVVGFPANCLSLYFGYLQIKARNELGVYLCNLTVADLFYICSLPFWLQYVLQHDNWSHGDLSCQVCGILLYENIYISVGFLCCISVDRYLAVAHPFRFHQFRTLKAAVGVSVVIWAKELLTSIYFLMHEEVIEDENQHRVCFEHYPIQAWQRAINYYRFLVGFLFPICLLLASYQGILRAVRRSHGTQKSRKDQIQRLVLSTVVIFLACFLPYHVLLLVRSVWEASCDFAKGVFNAYHFSLLLTSFNCVADPVLYCFVSETTHRDLARLRGACLAFLTCSRTGRAREAYPLGAPEASGKSGAQGEEPELLTKLHPAFQTPNSPGSGGFPTGRLA

Key:
[1] = variants of: B1; test: cAMP reporter score (Enrich2 score, wild type = 0); higher = more signal; HEK293T, FACS bins
[2] = variants of: B1; test: surface expression score (Enrich2 score, wild type = 0); higher = more signal; HEK293T, FACS bins

Row | Variant | cAMP reporter score ([1]; pH 5.5) | cAMP reporter score ([1]; pH 6) | cAMP reporter score ([1]; pH 6, modulator: ogerin) | cAMP reporter score ([1]; pH 6.5, modulator: ogerin) | surface expression score [2]
1 | T361_G362del | 0.497 | -0.122 | 0.948 | 0.536 | 0.821
2 | S93_C94insGSG | – | -1.24 | -0.639 | -0.539 | -0.126
3 | T361_G362insG | -0.042 | -0.325 | 0.27 | -0.359 | 0.219
4 | R363_L364del | -0.1 | – | 1.02 | -0.035 | 0.163
5 | T361del | 0.691 | – | 0.663 | 0.958 | 1.01
6 | F76_W77insGS | – | -0.953 | – | – | -1.72
7 | F76W | – | -0.246 | 0.059 | -0.035 | -0.449
8 | P360_G362del | 0.475 | – | 1.1 | 0.629 | 0.595
9 | P351del | 0.459 | – | 0.201 | 0.729 | 0.54
10 | P351V | 2.11 | 1.89 | 2.34 | 2 | 1.25
11 | P351Y | 0.997 | 0.9 | 1.08 | 0.445 | 0.654
12 | P351H | 0.56 | 1.07 | 0.752 | – | –
13 | P351R | -0.934 | -1.1 | -0.963 | -1.08 | 0.043
14 | P351K | 0.888 | 0.211 | 0.176 | 0.212 | -0.48
15 | P351L | 0.999 | 0.879 | 1.33 | 0.952 | 1.52
16 | P351N | -0.549 | -0.763 | -0.646 | -0.04 | -0.796
17 | P351T | 0.821 | 0.118 | 0.585 | 0.871 | 0.74
18 | P351Q | -0.116 | -0.217 | -0.082 | -0.84 | 0.017
19 | P351M | 1.07 | -0.501 | 1.21 | 0.675 | 0.375
20 | P351S | -0.877 | -0.516 | -0.834 | -0.376 | -0.75
21 | P351I | 1.16 | – | 0.278 | 0.864 | -0.151
22 | T18_I19del | – | -1.21 | – | -0.195 | -1.13

Row | Variant | cAMP reporter score ([1]; pH 5.5) | cAMP reporter score ([1]; pH 6) | cAMP reporter score ([1]; pH 6, modulator: ogerin) | cAMP reporter score ([1]; pH 6.5, modulator: ogerin) | surface expression score [2]
23 | L100F | – | -0.4 | – | -0.432 | -0.369
24 | S356_G357insG | -0.762 | -0.733 | -0.021 | -0.308 | -0.178
25 | G355del | 0.613 | – | 1.03 | 0.474 | -0.244
26 | P351_N352insGS | -0.028 | 0.597 | 0.396 | 0.52 | 0.495
27 | F359M | -0.276 | 0.289 | -0.734 | -0.007 | 0.292
28 | F359D | -0.022 | 0.876 | 0.41 | 0.862 | 0.17
29 | F359E | 0.001 | 0.158 | -0.067 | -0.111 | 0.031
30 | F359H | 0.278 | 0.188 | 0.473 | 0.512 | 0.597
31 | F359Q | 0.244 | 0.8 | 0.365 | 0.621 | 0.601
32 | F359W | 0.311 | -0.3 | 0.118 | 0.028 | -0.192
33 | F359Y | -0.604 | 1.44 | -0.564 | – | –
34 | F359N | 1.23 | – | 0.792 | 1.15 | 2.79
35 | F359I | 0.505 | 0.606 | 1.29 | -0.062 | 0.076
36 | F359R | 0.939 | 0.738 | 0.993 | 0.607 | 0.748
37 | F359A | -0.752 | 0.082 | -0.704 | -0.566 | -0.55
38 | F359L | 0.609 | 1 | 0.944 | 1.12 | 1.42
39 | F359G | 2.92 | 2.36 | 1.69 | 3.23 | –
40 | F359K | 0.052 | 0.543 | 0.116 | 0.767 | -0.572
41 | F359V | 0.826 | – | 2.05 | – | 1.52
42 | F359T | 0.497 | – | 0.723 | 0.318 | 0.448
43 | F359P | 1.51 | 1.18 | 1.55 | 1.77 | 1.06
44 | F359S | 1.05 | 1.35 | 1.27 | 1.95 | 1.05

Row | Variant | cAMP reporter score ([1]; pH 5.5) | cAMP reporter score ([1]; pH 6) | cAMP reporter score ([1]; pH 6, modulator: ogerin) | cAMP reporter score ([1]; pH 6.5, modulator: ogerin) | surface expression score [2]
45 | G362N | 0.071 | – | 0.97 | – | 1.33
46 | G362A | 0.99 | 0.446 | 0.692 | 0.419 | 0.795
47 | G362I | 0.835 | -0.344 | 0.376 | -0.196 | 0.641
48 | G362D | -0.258 | 0.657 | 0.563 | – | 0.777
49 | G362S | 0.409 | 0.451 | 0.643 | 0.516 | -0.452
50 | G362R | -1.28 | -0.965 | -1.12 | -1.27 | -1.61
51 | G362F | 0.107 | -1.26 | -0.395 | 0.039 | 0.3
52 | G362C | 0.619 | – | 0.909 | 1.04 | 0.515
53 | G362Q | -0.199 | -0.332 | -0.516 | -0.282 | -0.267
54 | G362T | 1.36 | 1.05 | – | 1.33 | 0.145
55 | G362K | 0.678 | 0.288 | 0.881 | 0.203 | 0.242
56 | G362H | 1.65 | – | 1.96 | 1.58 | 1.06
57 | G362E | -0.072 | 0.25 | -0.239 | -0.115 | -0.371
58 | G362P | -0.369 | -0.775 | -0.397 | -0.049 | 0.02
59 | G362Y | 0.577 | 0.375 | 0.555 | -0.179 | 0.173
60 | G362W | -0.125 | 0.296 | 0.03 | -0.281 | -1.2
61 | G362L | 0.786 | 1.62 | 0.633 | 1.44 | -0.094
62 | G362M | 0.576 | 0.187 | 0.65 | -0.295 | 0.24
63 | C40R | – | 0.001 | – | – | -3.03
64 | G355_S356del | 0.098 | 0.561 | 0.417 | 0.05 | 0.138
65 | P354_G355insGSG | 0.836 | -0.263 | 0.953 | 0.683 | 0.819
